From the RNAGym collection of RNA variant scans (doi:10.1073/pnas.2313332121)
Variants at the floor of the assay are shown more often than the library holds them.

B1: TPR 5TU (parent)
chain: GGAUCUUCUCGAUCUAACAAAAAAGACAAAUCUGCCACAAAGCUUGAGAGCAUCUUCGGAUGCAGAGGCGGCAGCCUUCGGUGGCGCGAUAGCGCCAACGUUCUCAACUAUGACACGCAAAACGCGUGCUCCGUUGAAUGGAGUUUAUCAUG

Variants of: B1
Experiment: polymerase ribozyme fitness, log enrichment relative to wild type (log ratio); higher = more active; in vitro selection for triplet polymerase activity
In short: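 Genotype fitness is the logarithm of its enrichment divided by wild-type enrichment, using inverse-variance-weighted averages of replicates. That logarithm is base 2. Enrichment was measured by Illumina sequencing of input and output libraries from one triplicate in vitro selection round, with frozen incubation at −7 °C, on PCR-built, transcribed mutant libraries of each subunit of a heterodimeric triplet polymerase ribozyme, retaining genotypes with ≥10 input reads and ≥1 read per output.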

Row | Variant | polymerase ribozyme fitness (log ratio)
1 | A21U G67C C69G C79A C96U C129U | ≤ -4.2
2 | A22U A30G G46C G50C A52C U55G C72U U82A C87A G88C U90A C99U | ≤ -4.2
3 | A22U A26C U45A G48U U82G C87G C129G | ≤ -4.2
4 | A23G C35U G42A U56A | ≤ -4.2
5 | A23G A40C U146G | ≤ -4.2
6 | A22G A40G A52C C75U C99A A107G C108U U134A | ≤ -4.2
7 | A22U A49C C96U A110U G140A | ≤ -4.2
8 | A23G G46U C79G G88A | ≤ -4.2
9 | A22C A41U U53C C75U | -2.58
10 | A23U C32U A52C C72U U82G C129A | ≤ -4.2
11 | A22U A41C C43U C54U U77A U82A C87G C99G U146C | ≤ -4.2
12 | A23U C79A G86A U102A | ≤ -4.2
13 | A23U U55A | -3.85
14 | A22U U55G A137G G140U | ≤ -4.2
15 | A22U A37G A49C G62U C75G C76A G81U C85G G128C | ≤ -4.2
16 | A22U G94C C95G C96A A122U | ≤ -4.2
17 | A23C C38A U45C C54A A91U G140U | ≤ -4.2
18 | A22U A30U C35G U53A C87U U102A C103U U144C | ≤ -4.2
19 | A22U C38A G70C C76A C79G U148G G152U | ≤ -4.2
20 | A22U A49C | ≤ -4.2
21 | A22U U33A G50A U61A G67A C87U A119U G124C | ≤ -4.2

Row | Variant | polymerase ribozyme fitness (log ratio)
22 | A22G C38A C54G U55A G92C C123U | ≤ -4.2
23 | A23C A24U C35U G50A C95U A137U | ≤ -4.2
24 | A23U G25C C35A C43U G80A C95U U104G G128A U144G | ≤ -4.2
25 | A22C C85U G140A | ≤ -4.2
26 | A23C A26G A37G G84U A137U | ≤ -4.2
27 | A22G A26G A40G C76U G136U U144C | ≤ -4.2
28 | A22C U144G | 0.903
29 | A23C U55A C87G C114G G133U G136U | ≤ -4.2
30 | A22C G48U A52C U53A G58U A97U A98U | ≤ -4.2
31 | A22G C54U G58A G59A C103G | -1.91
32 | A24C A28C A49U A60G C75A C96A | ≤ -4.2
33 | A22C C35A G88C | ≤ -4.2
34 | A22C C38U G81U C87G U144A | ≤ -4.2
35 | A22G A52C C75A A91C A115G C129U | ≤ -4.2
36 | A22C C27G G74A C76G A98G A107G U139C U144C | ≤ -4.2
37 | A22G A39G U61A G88C A121C U146G | ≤ -4.2
38 | A22G C108U | -4.08
39 | A22C A30C G50C C75G C99A A121G C132A | ≤ -4.2
40 | A22G A106G A122C G124U | -0.81
41 | A23U C114U | -3.88
42 | A23U U33G A52U C85U G94U A98U C116U | ≤ -4.2

Row | Variant | polymerase ribozyme fitness (log ratio)
43 | A22U U82A C96U | 0.375
44 | A22C C69A G80C C85U A89U A142G | ≤ -4.2
45 | A23U G42U C75G G80C | ≤ -4.2
46 | A22U C87U A89C U111A A115C | ≤ -4.2
47 | A23G G46C C93U G112A G136U | ≤ -4.2
48 | A22U C63U G86U A107C U109C | ≤ -4.2
49 | A22G C51A U56A G59C G86A C105G A115U G141C | ≤ -4.2
50 | A22U C76U A107G C116G | ≤ -4.2
51 | A22U A39U A40C A66C C105U | ≤ -4.2
52 | A23U A150G | ≤ -4.2
53 | A21U G71C C93A | ≤ -4.2
54 | A22C A28U C105U C123U | ≤ -4.2
55 | A23U C93U G126U | ≤ -4.2
56 | A22C A26U U33G G34A U55A A73U U77G G86A G143A | ≤ -4.2
57 | A23G G59U C95U | -3.41
58 | A23U C87U A121U C125A G143U | ≤ -4.2
59 | A23C C32U A64G G81A C87G C95U C96A A97G A138C G141U | ≤ -4.2
60 | A23C A115U | ≤ -4.2
61 | A23C C93A | -3.87
62 | A23G A39C U61A G84A A142U | ≤ -4.2
63 | A23G G59C U111G | ≤ -4.2

Row | Variant | polymerase ribozyme fitness (log ratio)
64 | A23U G34U U44A C114A G136C | ≤ -4.2
65 | A22C A28U C36U G67U C118G | ≤ -4.2
66 | A22U C87U C93U C95U C118U | ≤ -4.2
67 | A24C A29C G68U C96G | ≤ -4.2
68 | A23G C57A C63U G70C G74U U111C G140U A142C U148G | ≤ -4.2
69 | A22C G59C G83A A89C | -1.16
70 | A23U A40U G42A U77C G83U G140A | ≤ -4.2
71 | A22U G34A G74U G94A A119C G143A | ≤ -4.2
72 | A22G C32U C93A A107C | ≤ -4.2
73 | A21U G65C G92A A137C G141C | ≤ -4.2
74 | A22U C35G C76G G92A C105U | ≤ -4.2
75 | A23U A39U A52C C99G A122G | ≤ -4.2
76 | A22U A73C G92U A110G U111C G141C | ≤ -4.2
77 | A23C A37C C96G U127G U139A U144C | ≤ -4.2
78 | A23C C32U U33C | ≤ -4.2
79 | A22U A23G G50C G74C | ≤ -4.2
80 | A23C G88U U144G | ≤ -4.2
81 | A22G G84A A91C C103G U104G | ≤ -4.2
82 | A22G C85G G133A | ≤ -4.2
83 | A23U G62U A121U | ≤ -4.2
